Reference: PubChem BioAssay AID686979 (National Center for Advancing Translational Sciences (NCATS), 2013)
The whole screen tested about 420,000 compounds, of which about 50,000 (12%) were called active. The inconclusive results got no clear call from the source; some entries with a clear call stand among them for comparison. The call rests on the fitted dose curve; in most records, active means well fitted inhibition curve with a large enough effect; inconclusive means small, poorly fitted or top-dose-only effect; inactive means flat fitted curve, though single readings scatter. Potencies of inconclusive entries are left out as doubtful fits.

Assay: qHTS for Inhibitors of human tyrosyl-DNA phosphodiesterase 1 (TDP1): qHTS in cells in presence of CPT; further: nearly all actives have a fitted effect of over 55% in size
Conditions: chicken DT40 Tdp1-/-;hTDP1 cells + 20 nM CPT, ATP luminescence, 48 h; activity change, negative = growth inhibition: at 46.2 µM (top of the series) unless noted
Outline: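 Cell growth measured by CellTiter-Glo luminescence after a minimum 48 h, 37 C compound exposure with 20 nM CPT in Tdp1-knockout DT40 cells stably expressing hTDP1, seeded 400/well; qHTS titration format.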
On the % scale 0 is the no-effect control and ±100 the full control effect; potency means the concentration at half of the fitted maximal effect; tags describe the fitted curve by direction and shape.

With `N/C(Cn1cncn1)=N\NC(=O)c1ccc(Cl)cc1Cl` as the compound, how does the Potency read?
Its Potency is “inactive”.

With `CCCn1c(SCc2ccccn2)nc2c1c(=O)n(C)c(=O)n2C` as the compound, how does the Potency read?
Its Potency is inconclusive [inhibitor, single point].

With `O=c1[nH]c(NCCO)nc2c1C1(CCCC1)Cc1ccccc1-2` as the compound, how does the activity change, negative = growth inhibition read?
Its activity change, negative = growth inhibition is inconclusive: -37% [inhibitor].

For `Cc1ncc(C23CC4CC(CC(C4)C2)C3)[nH]1`, which Potency is on record?
Its Potency is inconclusive [inhibitor, single point].

Which Potency does the source give for `COc1ccc(CNC(=O)Cn2nc(N3CCN(c4ccccc4)CC3)ccc2=O)c(OC)c1` here?
The Potency was inconclusive [inhibitor, single point].

With `COc1ccc(C2CC2/C(C)=N/OC(=O)c2ccc(F)cc2)cc1` (stereo not drawn) as the compound, how does the activity change, negative = growth inhibition read?
The activity change, negative = growth inhibition was inconclusive: -32.3% [inhibitor].

With `Clc1cccc(CNc2ccn3nc(-c4ccc(OCCN5CCOCC5)cc4)cc3n2)c1` as the compound, how does the Potency read?
Its Potency is active: 8.2 µM.

For `O=C(COc1ccccc1)Nc1cc2c3c(c1)CC(=O)N3CCC2`, which Potency is on record?
Its Potency is “inactive”.

For `COc1ccc(Oc2coc3c(CN(C)C)c(O)ccc3c2=O)cc1`, which Potency is on record?
Its Potency is “inactive”.

For `O=C(CNc1cccc(S(=O)(=O)N2CCOCC2)c1)Nc1cccc(Br)c1`, which Potency is on record?
The Potency was inconclusive [inhibitor, single point].

Which Potency does the source give for `COc1ccc(N2CCN(C(=O)CSc3nnnn3C3CC3)CC2)cc1` here?
Its Potency is “inactive”.

For `Cc1ccc(C)c(OCC(O)CN2C(C)CCCC2C)c1` (stereo not drawn), which Potency is on record?
The Potency was active: 23.1 µM.

Which Potency does the source give for `CN(C)c1ccc(S(=O)(=O)N(C)C)cc1NC(=O)Cc1cccc2ccccc12` here?
Its Potency is inconclusive [inhibitor, single point].

For `Cn1cc(/C=C/c2ccc3ccccc3n2)c2ccccc21`, which Potency is on record?
The Potency was active: 11.2 µM.

Which Potency does the source give for `COc1ccc(F)cc1S(=O)(=O)NCc1cc(=O)n(C)c(=O)n1C` here?
Its Potency is “inactive”.

With `CCCC(=O)Nc1ccc(NC(=O)C23CC4CC(CC(C4)C2)C3)cn1` as the compound, how does the Potency read?
Its Potency is inconclusive [inhibitor, single point].

With `Cn1c(=O)c2c(nc(Cl)n2CCOc2ccccc2)n(C)c1=O` as the compound, how does the Potency read?
Its Potency is inconclusive [inhibitor, partial curve].

With `Nc1nncn1C(=O)c1ccc(Cl)cc1Cl` as the compound, how does the Potency read?
Its Potency is “inactive”.

For `CCc1cc2c(COC(=O)c3c(C)noc3C)cc(=O)oc2cc1O`, which Potency is on record?
Its Potency is inconclusive [inhibitor, single point].

For `CCOC(=O)Cc1csc(N/N=C/c2ccccc2)n1`, which Potency is on record?
The Potency was inconclusive [inhibitor, single point].

For `CCC(C)Nc1oc(-c2ccc(COc3ccc(Cl)cc3)o2)nc1C#N` (stereo not drawn), which Potency is on record?
Its Potency is inconclusive [inhibitor, single point].

With `CN(C)S(=O)(=O)c1ccc(Cl)c(NC(=O)CN2CCN(Cc3ccc4c(c3)OCO4)CC2)c1` as the compound, how does the Potency read?
Its Potency is inconclusive [inhibitor, single point].

Which Potency does the source give for `Cc1cccc(-n2c(=S)[nH]c3c(oc4ccccc43)c2=O)c1` here?
The Potency was “inactive”.

Which Potency does the source give for `CCNc1cc(S(=O)(=O)C(F)(F)F)ccc1N` here?
The Potency was inconclusive [inhibitor, partial curve].

Which Potency does the source give for `COc1ccc(CCNC(=O)c2cc(C(=O)c3cc(C)ccc3O)cn(CCc3ccc(OC)cc3)c2=O)cc1` here?
The Potency was inconclusive [inhibitor, single point].

With `COc1ccc(/C=N/NC(=O)c2[nH]c3ccc(Br)cc3c2-c2ccccc2)c(C(=O)O)c1OC` as the compound, how does the Potency read?
Its Potency is “inactive”.

With `O=[N+]([O-])c1ccc(CSc2nnc(SCc3ccc(Cl)cc3)s2)cc1` as the compound, how does the Potency read?
The Potency was inconclusive [inhibitor, single point].

With `CCn1c2ccccc2c2cc(CNCCCN3CCOCC3)ccc21` as the compound, how does the Potency read?
The Potency was active: 20.6 µM.

For `CSc1ncnc2c1ncn2CCCNCc1ccc(C)o1`, which Potency is on record?
The Potency was “inactive”.

With `CCn1cc(C(=O)NCc2ccc(C)cc2)c(=O)c2cc(S(=O)(=O)N(C)C3CCCCC3)ccc21` as the compound, how does the Potency read?
The Potency was inconclusive [inhibitor, single point].

For `CCc1ccc(CN(Cc2ccco2)C(=O)COc2ccc(Cl)c(C)c2)cc1`, which Potency is on record?
The Potency was inconclusive [inhibitor, single point].

Which Potency does the source give for `O=C1CNC(=S)N1CCc1ccccc1Cl` here?
Its Potency is “inactive”.

Which Potency does the source give for `CCc1ccc(-c2cc(C(=O)NCc3ccccn3)c3ccccc3n2)cc1` here?
Its Potency is inconclusive [inhibitor, single point].

Which Potency does the source give for `Cc1cccn2c(=O)c(C=O)c(N3CCN(c4ccccc4)CC3)nc12` here?
The Potency was “inactive”.

Which Potency does the source give for `COc1ccc(-n2nc(C(=O)N3CCN(c4ccc(F)cc4)CC3)c3ccccc3c2=O)c(OC)c1` here?
Its Potency is inconclusive [inhibitor, single point].

For `O=C(NCC1CCCO1)/C(=C\c1ccccc1F)NC(=O)c1ccccc1` (stereo not drawn), which Potency is on record?
Its Potency is “inactive”.

For `COc1ccccc1-c1cn[nH]c1-c1ccc(O)cc1O`, which Potency is on record?
The Potency was inconclusive [inhibitor, single point].

Which Potency does the source give for `O=C(NN=C1CCCC1)c1ccc(Br)cc1` here?
Its Potency is “inactive”.

Which Potency does the source give for `Cc1ccc(NC(=O)COC(=O)CN2CCSC2=O)cc1Cl` here?
Its Potency is “inactive”.

For `CCOc1ccc(C(=O)COC(=O)Cn2[nH]c(=O)c3ccccc3c2=O)cc1`, which Potency is on record?
The Potency was “inactive”.

Which Potency does the source give for `Cc1cc(Cl)ccc1NC(=S)NCCCO` here?
The Potency was “inactive”.

With `Cc1cccc(C)c1-n1nnnc1C(c1ccccc1OC(F)(F)F)N1CCN(C/C=C/c2ccccc2)CC1` (stereo not drawn) as the compound, how does the Potency read?
The Potency was inconclusive [inhibitor, single point].

With `O=C(Nc1ccc2oc(-c3ccncc3)nc2c1)c1ccco1` as the compound, how does the Potency read?
The Potency was inconclusive [inhibitor, single point].

For `Cc1ccsc1C(=O)NC1CCCN(Cc2ccc(Cl)cc2)C1` (stereo not drawn), which Potency is on record?
Its Potency is inconclusive [inhibitor, single point].

Which Potency does the source give for `Cc1cc(C)c[n+](CC(=O)c2ccccc2)c1` here?
The Potency was inconclusive [inhibitor, full curve, poor fit].

With `O=C(Nc1ccccc1N1CCOCC1)c1ccc(F)c(S(=O)(=O)N2CCOCC2)c1` as the compound, how does the Potency read?
The Potency was inconclusive [inhibitor, single point].

With `Cc1cc(C(=O)CC#N)c(C)n1-c1c(C)n(C)n(-c2ccccc2)c1=O` as the compound, how does the Potency read?
Its Potency is “inactive”.

For `CS(=O)(=O)c1ccc(C(=O)OCC(=O)NCc2cccs2)cc1[N+](=O)[O-]`, which Potency is on record?
Its Potency is active: 5.8 µM.

For `Nc1c(-c2n[nH]c(=S)n2-c2ccc(Cl)cc2Cl)cnn1-c1ccccc1`, which Potency is on record?
Its Potency is “inactive”.

For `COc1cc(C(=O)Nc2cccc(-n3cnnn3)c2)cc(Cl)c1OC`, which Potency is on record?
The Potency was inconclusive [inhibitor, partial curve, poor fit].

With `C=Cn1cc[n+](CC(=O)c2ccc(Cl)c(Cl)c2)c1` as the compound, how does the Potency read?
The Potency was inconclusive [inhibitor, partial curve, poor fit].

With `N#Cc1ccccc1S(=O)(=O)N1CCN(C(=O)c2cc(-c3ccccc3)nn2-c2ccccc2)CC1` as the compound, how does the Potency read?
Its Potency is inconclusive [inhibitor, single point].

With `COc1ccc(CCNC(=O)Cn2nnc(-c3ccc(N(C)C)cc3)n2)cc1OC` as the compound, how does the Potency read?
The Potency was inconclusive [inhibitor, single point].

Which Potency does the source give for `COc1ccc(S(=O)(=O)n2nc(-c3ccc(Cl)cc3)cc2N)cc1` here?
Its Potency is inconclusive [inhibitor, single point].

With `CCCCNc1ccc(C(CC(N)=O)NC(=O)Cc2ccc(Br)cc2)cc1[N+](=O)[O-]` (stereo not drawn) as the compound, how does the activity change, negative = growth inhibition read?
The activity change, negative = growth inhibition was inconclusive: -39% [inhibitor].

For `CCOC(=O)c1sc(=S)n(C)c1NC(=O)c1ccc(F)cc1`, which Potency is on record?
The Potency was inconclusive [inhibitor, single point].

For `COc1cccc(OCc2cc(=O)n3c(-c4ccccc4)csc3n2)c1`, which Potency is on record?
Its Potency is inconclusive [inhibitor, partial curve].

Which Potency does the source give for `CCc1ccc(NC(=O)C(C)n2nc(C)c([N+](=O)[O-])c2C)cc1` (stereo not drawn) here?
Its Potency is “inactive”.

For `CCN1CCN(C(=O)CN(CC)S(=O)(=O)c2ccc3ccccc3c2)CC1`, which Potency is on record?
Its Potency is “inactive”.

Which Potency does the source give for `CC1CC(C)CN(C(=O)c2ccc3c(c2)N(Cc2ccccc2)CCS3)C1` (stereo not drawn) here?
Its Potency is inconclusive [inhibitor, single point].

With `COc1ccc(CCNC(=O)c2ccc3c(c2)N(Cc2ccccc2F)C(=O)c2ccccc2S3=O)cc1OC` (stereo not drawn) as the compound, how does the Potency read?
Its Potency is active: 14.6 µM.

Which Potency does the source give for `COC(=O)c1cccc(NC(=O)c2nsc3ccccc23)c1` here?
The Potency was inconclusive [inhibitor, partial curve].

For `COc1ccc(/C=N/NC(=O)c2ccco2)cc1Cn1nc(C)c([N+](=O)[O-])c1C`, which Potency is on record?
Its Potency is inconclusive [inhibitor, full curve, poor fit].

For `Cc1ccc(C)c(Oc2cc(NN3CCCCC3)c([N+](=O)[O-])cc2[N+](=O)[O-])c1`, which Potency is on record?
Its Potency is inconclusive [inhibitor, single point].

For `O=Cc1cn(CCOc2ccccc2F)c2ccccc12`, which Potency is on record?
The Potency was inconclusive [inhibitor, single point].

With `CCN(CC)S(=O)(=O)c1ccc(C(=O)NCCSc2c(-c3ccc(C)cc3)[nH]c3ccccc23)cc1` as the compound, how does the Potency read?
The Potency was active: 5.8 µM.

Which Potency does the source give for `COc1ccc(-c2csc3ncnc(N4CCN(c5cccc(OC)c5)CC4)c23)cc1` here?
Its Potency is active: 16.4 µM.

For `CCOC(=O)c1cn(Cc2c(C)c(C)c(C)c(C)c2C)nn1`, which Potency is on record?
The Potency was active: 16.4 µM.

For `COc1ccc(N2CCN(S(=O)(=O)CCNC(=O)COc3ccccc3F)CC2)cc1`, which Potency is on record?
Its Potency is “inactive”.

Which Potency does the source give for `Cc1ccc(CCNC(=O)C2CCC(=O)N(CC3CCCCC3)C2)cc1` (stereo not drawn) here?
Its Potency is “inactive”.

With `CCOC(=O)c1ccc(NS(=O)(=O)c2ccc(SC)cc2)cc1` as the compound, how does the Potency read?
Its Potency is inconclusive [inhibitor, single point].

With `COc1ccc2cc3cc(C(=O)N4CCN(Cc5ccc6c(c5)OCO6)CC4)oc3nc2c1` as the compound, how does the Potency read?
Its Potency is inconclusive [inhibitor, partial curve, poor fit].

Which Potency does the source give for `O=C(NCC1COc2ccccc2O1)c1cc2ccccc2o1` (stereo not drawn) here?
The Potency was inconclusive [inhibitor, single point].
